PubChem BioAssay AID2546 (National Center for Advancing Translational Sciences (NCATS), 2010)
About 11,000 (3.5%) of roughly 310,000 compounds were called active. The inconclusive results got no clear call from the source; some entries with a clear call stand among them for comparison. The call rests on the fitted dose curve; in most records, active means well fitted inhibition curve with a large enough effect; inconclusive means small, poorly fitted or top-dose-only effect, or effect the other way; inactive means flat fitted curve, though single readings scatter. No potency is given beside an inconclusive call; the fits are too rough.

Assay: VP16 counterscreen qHTS for inhibitors of ROR gamma transcriptional activity;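 further: Gal4-VP16 expression switched on by copper sulfate through the metallothionein promoter; nearly all actives have a fitted effect of over 50% in size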
Settings: Drosophila S2 Gal4-VP16 UAS-luciferase, luminescence, 20 h; activity, negative = inhibition: at 53.6 µM (top of the series)
On the % scale 0 is the no-effect control and ±100 the full control effect; potency means the concentration at half of the fitted maximal effect; tags describe the fitted curve by direction and shape.

SMILES	Potency	activity, negative = inhibition
O=C(NCc1ccccc1)c1onc(CSc2nc3ccccc3[nH]2)c1C(=O)NCc1ccccc1	inactive	
CCCCC(=O)Nc1cccc(-c2nnc(-c3ccccc3)o2)c1	inconclusive [activator, single point]	
Cc1ccc2c(c1)N(CCC(=O)NC1CCCCC1)C(=O)CO2	inconclusive [activator, single point]	
COc1ccnc2c1c(=O)n(Cc1c(F)cccc1Cl)c(=O)n2C	inconclusive [inhibitor, single point]	
Cc1cccc(-n2cc(CNCCc3nc(C)cc(C)n3)c(-c3cccc(F)c3)n2)c1	inactive	
COc1cc([C@@H]2c3cc4c(cc3[C@H](O)[C@H]3COC(=O)[C@H]23)OCO4)cc(OC)c1OC	inactive	
C=CCc1ccc(O)c(-c2ccc(O)c(CC=C)c2)c1	active: 22.4 µM	
Brc1ccc(-c2cnc3n2CCCC3)cc1	inconclusive [inhibitor, single point]	
CCOC(=O)c1nnn(-c2nonc2-n2cccc2)c1CN1CCC(C)CC1	inconclusive [inhibitor, single point]	
Cc1ccc(NC(=O)CNC(=O)c2ccco2)nc1	inactive	
NC(=O)c1cc(-c2ccccc2)nc2ccc(Br)cc12	inactive	
O=C(N/N=C/c1cccc(OCc2ccccc2)c1)c1ccc(Br)o1	inconclusive [inhibitor, single point]	
ON/C=N/C(=S)Nc1ncc(C(F)(F)F)cc1Cl	inconclusive [inhibitor, single point]	
c1ccc(-n2ncc3c(NCCCN4CCOCC4)ncnc32)cc1	inconclusive [inhibitor, single point]	
O=C(CCCSc1nc2ccccc2c(=O)[nH]1)c1ccc(F)cc1	inactive	
O=C(NNc1nc2c(F)cccc2s1)c1cc(=O)c2ccccc2o1	inconclusive [inhibitor, single point]	
COCCNC(=S)N/N=C(\C)c1cccc(OC)c1	inconclusive [inhibitor, single point]	
CCCCNc1nc(-c2ccccc2)cc(C(F)(F)F)c1C(N)=O	inconclusive [inhibitor, single point]	
COc1cc(OC)c2c(-c3cccc(-c4ccc(C#N)cc4)c3)cc(=O)oc2c1	inactive	
CN1CCN(C2=Cc3ccccc3Sc3cc(F)c(Cl)cc32)CC1	inconclusive [inhibitor, single point]	
O=C(O)c1cccc(N/N=C/c2ccc(-c3ccccc3)cc2)c1	inconclusive [inhibitor, partial curve]	
CCN(CC)S(=O)(=O)c1cccc(-n2c(O)c(C=Nc3ccccc3C(=O)O)c3ccccc3c2=O)c1	inactive	
Cn1c2ccccc2c(=O)c2c(=O)n(Cc3ccco3)c(COc3ccccc3)nc21	active: 17.8 µM	
Cc1ccc(C(=O)NC(=S)Nc2ccccc2N2CCCC2)cc1[N+](=O)[O-]	inconclusive [inhibitor, full curve, poor fit]	
Cc1ccc(Cl)cc1NC(=O)c1cnn2c1NC(c1ccco1)CC2C(F)(F)F (stereo not drawn)	inactive	

SMILES	Potency	activity, negative = inhibition
Cc1ccc(C2(C)NC(=O)N(CC(=O)Nc3ccc(-c4nc5ccc(C)cc5s4)cc3)C2=O)cc1 (stereo not drawn)	inactive	
CC(=O)c1ccc(-c2ccc(/C=C(/Sc3n[nH]c(C)n3)C(=O)O)o2)cc1	inconclusive [inhibitor, full curve]	
COC(=O)c1sccc1NC(=O)Cc1ccc(OC)c(OC)c1	inconclusive [inhibitor, single point]	
CCn1c2ccccc2c2cc(NC(=O)CSc3nccc(=O)[nH]3)ccc21	inactive	
COC(=O)c1ccc(N/N=C/c2cc([N+](=O)[O-])cc(OC)c2O)cc1	inactive	
Cc1cc(/C=N/NC(=O)C(O)(c2ccccc2)c2ccccc2)c(C)n1-c1ccc(C(=O)O)cc1	inconclusive [inhibitor, single point]	
COc1cc(SC)ccc1C(=O)Nc1ccccn1	active: 10 µM	
Cc1ccc(NC(=O)n2ncc3c(C)cccc32)c(C)c1	inconclusive [inhibitor, single point]	
COc1cccc(-c2ccc3ncnc(NC4CC4)c3c2)c1	inconclusive [inhibitor, full curve, poor fit]	
O=C(CC1SC(=O)NC1=O)Nc1ccc(Cl)cc1 (stereo not drawn)	inconclusive [inhibitor, single point]	
CC(=O)O[C@H]1CC(C)(C)C(=C=C/C(C)=C/C=C/C(C)=C/C=C/C=C(C)/C=C/C=C(\C)C(=O)C[C@@]23O[C@]2(C)C[C@@H](O)CC3(C)C)[C@](C)(O)C1	inactive	
CCn1c(CCNC(=O)c2ccc(OC)cc2)nnc1SCc1ccc(Cl)c(Cl)c1	inconclusive [inhibitor, partial curve]	
COc1cccc(N2CCN(C(=O)Cn3c(=O)oc4ccccc43)CC2)c1	inactive	
N#C/C(=C(/O)c1ccc(-c2cccc([N+](=O)[O-])c2)o1)c1nc2ccccc2s1	inconclusive [inhibitor, single point]	
O=c1c2ccccc2nc2n1C(CSc1ccc(F)cc1)CN2 (stereo not drawn)	inactive	
Cc1cc2ncn(/N=C/c3cc(Br)ccc3O)c2cc1C	inconclusive [inhibitor, single point]	
Cc1ccc(S(=O)(=O)Nc2cc(=O)[nH]c(SCC(=O)Nc3cccc(C)c3)n2)cc1	inactive	
NC(=O)CC(NC(=O)Cc1ccc(Br)cc1)c1ccc(NCCOc2ccccc2)c([N+](=O)[O-])c1 (stereo not drawn)	inactive	
CC(=O)c1ccc(NC(=O)CN2CCCCCC2)cc1	inactive	
CSc1ncccc1C(=O)OCC(=O)Nc1cc(C(F)(F)F)ccc1N1CCOCC1	inconclusive [inhibitor, single point]	
COC(=O)C(CC(=O)c1ccc(Br)cc1)n1nc(C)cc1C (stereo not drawn)	inconclusive [inhibitor, single point]	
c1ccc(-c2nc3nonc3nc2-c2ccccc2)cc1	inconclusive [inhibitor, single point]	
CCOc1ccc(Nc2nc(Cl)nc(NCCO)n2)cc1	inactive	
COc1ccc(S(=O)(=O)N2CCCCC2)cc1NC(=S)Nc1cccc(Cl)c1C	inconclusive [inhibitor, single point]	
Cc1ccc(-c2nn(-c3ccccc3)c3[nH]c(=O)c(CNCCN(C)C)cc23)cc1	active: 7.94 µM	

SMILES	Potency	activity, negative = inhibition
O=C(Nc1ccc(C(=O)N2CCCCC2)cc1)c1cccs1	inconclusive [activator, single point]	
C=CCNCC(=O)Nc1sc2c(c1C(=O)Nc1ccc(OC)cc1OC)CCC2	active: 1.26 µM	
C[C@H](C(=O)OCO/N=[N+](\[O-])N1CCCC1)c1cccc2ccccc12	inactive	
COc1ccc(Nc2cnn(-c3nc4ccccc4s3)c(=O)c2Cl)cc1	inconclusive [inhibitor, single point]	
CC1=C(C(=O)Nc2ccc(Cl)cc2C(=O)N2CCC(C(N)=O)CC2)SCCO1	inactive	
COc1ccc(-c2nnc(SCc3cccc(C#N)c3)o2)cc1	inconclusive [inhibitor, single point]	
CCCCOc1ccc(-c2nnn(CC(=O)NCCc3c[nH]c4ccccc34)n2)cc1	inconclusive [inhibitor, single point]	
CCc1ccc(C2=NN(CCC(=O)NC(C)CCc3ccccc3)C(=O)CC2)cc1 (stereo not drawn)	inactive	
O=C(N/N=C/c1cc(Cl)ccc1O)c1ccc(Br)cc1	inconclusive [inhibitor, single point]	
C(=C\c1nnc2c3ccccc3ncn12)/c1ccccc1	inconclusive [inhibitor, partial curve]	
O=C(N/N=C/c1ccc([N+](=O)[O-])o1)c1ccc(O)cc1	active: 12.6 µM	
COCCN1CCN(C(=O)c2cc(COc3ccc(F)cc3Cl)on2)CC1	inactive	
O=C(NC(=S)Nc1cc([N+](=O)[O-])ccc1O)c1ccc2c(c1)OCO2	active: 2.82 µM	
O=[N+]([O-])/C=C\c1ccc(N2CCCC2)c(F)c1		inactive: -16.2% [at 10 µM]
COc1ccc(N(C)S(=O)(=O)c2ccc(Cl)c(C(=O)NCCc3ccc(Cl)cc3)c2)cc1	inactive	
C/C(=N/Nc1ccc([N+](=O)[O-])cc1)c1c[nH]c2ccccc12	inconclusive [inhibitor, single point]	
COc1ccc(-c2nc3ccc(C(=O)NCCCN4CCOCC4)cc3nc2-c2ccc(OC)cc2)cc1	inconclusive [inhibitor, single point]	
CCCCCCCCCCOC(=O)Cn1c(COc2ccc(C)cc2)[n+](C)c2ccccc21	inconclusive [inhibitor, partial curve, poor fit]	
Cc1ccc(/C=C/c2ccc3cccc(O)c3n2)s1	inconclusive [inhibitor, single point]	
O=C(O)c1ccccc1Nc1ccc(OC(F)F)cc1	inconclusive [activator, single point]	
Cc1ccc(C(=O)Nc2cccc3cccnc23)cc1C	inconclusive [activator, single point]	
Nc1c(-c2ccccc2)c(CSc2nc3ccccc3[nH]2)nn1-c1ccc(Cl)cc1	inactive	
CC(C)(C)c1ccc(S(=O)(=O)N2CCCCC2C(=O)NCc2ccccn2)cc1 (stereo not drawn)	active: 2.51 µM	
